What all share (assay): co-IP; HL-1 cells co-transfected with the Flag-tagged Cb1r plasmid and one of the Myc-Nlrp3, His-Gsdmd, HA-Casp1 or GST-Asc plasmids; precipitation with anti-Flag antibody, and the reverse
Assay [1] addresses T1, GST-tagged ASC (expressed in HL-1 cells) (UniProt Q9EPB4).
T1 sequence: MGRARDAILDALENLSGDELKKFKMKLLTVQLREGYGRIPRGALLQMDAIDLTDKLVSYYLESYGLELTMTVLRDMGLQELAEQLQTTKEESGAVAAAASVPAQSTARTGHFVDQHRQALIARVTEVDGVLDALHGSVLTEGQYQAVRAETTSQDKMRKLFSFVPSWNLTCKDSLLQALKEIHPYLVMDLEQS

Amino acid sequences for entries named in this document (tags omitted).
UniProt Q8R4B8: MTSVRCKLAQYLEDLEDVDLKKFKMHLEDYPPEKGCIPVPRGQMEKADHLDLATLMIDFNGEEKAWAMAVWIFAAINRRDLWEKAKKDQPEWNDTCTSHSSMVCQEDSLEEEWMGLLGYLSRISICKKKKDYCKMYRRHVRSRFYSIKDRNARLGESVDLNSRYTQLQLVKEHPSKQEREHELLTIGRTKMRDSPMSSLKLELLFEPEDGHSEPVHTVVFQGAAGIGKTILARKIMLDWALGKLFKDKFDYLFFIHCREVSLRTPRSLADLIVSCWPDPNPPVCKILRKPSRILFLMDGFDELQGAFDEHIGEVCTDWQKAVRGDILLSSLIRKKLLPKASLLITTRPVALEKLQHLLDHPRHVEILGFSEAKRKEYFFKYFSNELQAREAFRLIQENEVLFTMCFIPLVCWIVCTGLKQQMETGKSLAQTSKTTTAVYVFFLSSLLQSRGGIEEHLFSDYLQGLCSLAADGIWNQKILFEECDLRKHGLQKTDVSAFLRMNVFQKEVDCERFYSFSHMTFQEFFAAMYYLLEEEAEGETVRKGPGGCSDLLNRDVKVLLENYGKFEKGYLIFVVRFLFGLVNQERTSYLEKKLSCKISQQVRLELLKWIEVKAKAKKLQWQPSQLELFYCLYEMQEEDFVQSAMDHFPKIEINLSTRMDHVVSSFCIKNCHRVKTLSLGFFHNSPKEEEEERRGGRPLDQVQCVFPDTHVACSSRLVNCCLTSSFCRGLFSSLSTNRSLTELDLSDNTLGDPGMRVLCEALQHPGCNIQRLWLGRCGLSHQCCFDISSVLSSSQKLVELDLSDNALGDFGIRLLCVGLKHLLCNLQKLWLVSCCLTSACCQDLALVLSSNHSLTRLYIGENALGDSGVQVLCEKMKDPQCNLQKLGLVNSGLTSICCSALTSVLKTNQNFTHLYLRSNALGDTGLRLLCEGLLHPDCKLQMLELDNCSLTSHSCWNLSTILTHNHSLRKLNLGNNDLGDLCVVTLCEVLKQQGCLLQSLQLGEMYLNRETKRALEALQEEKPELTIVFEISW
UniProt P47746: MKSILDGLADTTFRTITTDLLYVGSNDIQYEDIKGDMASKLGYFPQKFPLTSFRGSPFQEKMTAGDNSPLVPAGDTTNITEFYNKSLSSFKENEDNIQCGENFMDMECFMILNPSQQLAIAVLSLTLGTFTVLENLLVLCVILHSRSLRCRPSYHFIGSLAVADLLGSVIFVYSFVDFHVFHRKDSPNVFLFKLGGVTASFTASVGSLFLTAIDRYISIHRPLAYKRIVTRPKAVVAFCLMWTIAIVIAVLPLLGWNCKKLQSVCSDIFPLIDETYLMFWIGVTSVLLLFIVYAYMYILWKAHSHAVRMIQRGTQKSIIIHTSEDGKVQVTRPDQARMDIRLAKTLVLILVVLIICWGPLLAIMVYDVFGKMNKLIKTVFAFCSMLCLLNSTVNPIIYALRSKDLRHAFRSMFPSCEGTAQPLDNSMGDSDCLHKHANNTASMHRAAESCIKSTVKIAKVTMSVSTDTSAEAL

In assay [2] the target is T2, HA-tagged Casp1 (expressed in HL-1 cells) (UniProt P29452).
T2 sequence: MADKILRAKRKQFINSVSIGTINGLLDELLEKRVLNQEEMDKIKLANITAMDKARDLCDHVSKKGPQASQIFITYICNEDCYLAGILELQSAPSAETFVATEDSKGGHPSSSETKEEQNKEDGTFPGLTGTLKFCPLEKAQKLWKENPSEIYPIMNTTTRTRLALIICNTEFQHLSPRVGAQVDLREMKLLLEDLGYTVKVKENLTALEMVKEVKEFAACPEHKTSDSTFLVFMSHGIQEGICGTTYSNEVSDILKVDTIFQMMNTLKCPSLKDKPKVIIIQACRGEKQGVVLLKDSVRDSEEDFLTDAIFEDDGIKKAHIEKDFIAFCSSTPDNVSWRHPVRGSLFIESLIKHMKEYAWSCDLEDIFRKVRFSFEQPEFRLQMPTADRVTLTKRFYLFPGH

Assay [3] addresses T3, His-tagged GSDMD (expressed in HL-1 cells) (UniProt Q9D8T2).
T3 sequence: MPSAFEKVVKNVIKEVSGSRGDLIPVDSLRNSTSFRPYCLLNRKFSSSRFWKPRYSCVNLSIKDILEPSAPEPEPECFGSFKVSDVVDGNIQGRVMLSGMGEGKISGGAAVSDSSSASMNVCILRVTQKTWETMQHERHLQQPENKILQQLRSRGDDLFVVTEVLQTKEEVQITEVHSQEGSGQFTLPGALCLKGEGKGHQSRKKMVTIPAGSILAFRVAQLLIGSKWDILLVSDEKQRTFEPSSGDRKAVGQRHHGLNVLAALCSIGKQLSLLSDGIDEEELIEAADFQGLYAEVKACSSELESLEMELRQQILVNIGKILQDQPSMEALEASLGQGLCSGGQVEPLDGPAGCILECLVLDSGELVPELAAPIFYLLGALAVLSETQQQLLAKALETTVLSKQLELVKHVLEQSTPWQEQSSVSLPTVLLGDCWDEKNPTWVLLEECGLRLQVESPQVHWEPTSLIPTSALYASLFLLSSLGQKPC

The target in assay [4] is Myc-tagged NLRP3 (expressed in HL-1 cells) (UniProt Q8R4B8).

No constants are given. Whether binding was seen depends on the method and setting. In cells and extracts the contact can be indirect. Some results given as binding are weak or reduced against the parent protein; the word gives no strength. For some of these results: Where a sequence is shown, tags or fusion partners need not be part of it.

Consider “Flag-tagged CB1R, full length (CB1R-FL, 1-473 amino acids) (from UniProt P47746 1-473) (receptor)”, for which the binding result in assay [1] is “no binding”; in assay [2], “binds”; in assay [3], “binds”; in assay [4], “binds”.
